# Measurements reported in PubChem BioAssay AID624296 (National Center for Advancing Translational Sciences (NCATS), 2012).
# Values joined by “and” are separate entries in the source; they are usually repeats but may differ in a detail not shown here. Identical values can stand only once. In all, about 350,000 compounds went through this assay and about 9,900 (2.8%) were called active. This list was built around the results that the source calls inconclusive (neither active nor inactive); the mix of calls is not that of the screen. Calls follow the shape of the dose curve; as a rule, active = well fitted activation curve with a large enough effect; inconclusive = small, poorly fitted or top-dose-only effect; inactive = no such curve, though single readings can be large or run the other way. Potencies beside an inconclusive call are fits to weak or partial responses and may not hold up.
# Test: A quantitative high throughput screen for small molecules that induce DNA re-replication in MCF 10a normal breast cells. Also: nearly all actives have a fitted effect of over 50% in size. As to activity, positive = re-replication: % of control where 0% means no effect.
# Settings: MCF 10A DNA re-replication, Hoechst nuclear intensity, 48 h; activity, positive = re-replication: at 46.1 µM (top of the series)
# Potency is read from the fitted curve at half-maximal effect; tags tell the direction and shape of the fitted curve.
SMILES,Potency,"activity, positive = re-replication"
N#C/C(=C\C1CC=CCC1)c1nc2ccccc2[nH]1 (configuration not stated),"inconclusive: 29.1 µM [activator, single point]",
CCOC(=O)c1sc(=S)n(-c2ccc(OC)cc2)c1C,"inconclusive: 0.0046 µM [activator, full curve, poor fit]",
Cc1ccc(OCCn2cc(/C=C3\C(=O)NN(c4ccccc4)C3=O)c3ccccc32)cc1,,inactive: 15.6%
Cc1ccc(C(=O)N2CCN(c3ccc(F)cc3)CC2)cc1S(=O)(=O)N1CCCCC1,,inactive: 1.53%
CCS(=O)(=O)N1Cc2ccccc2CC1C(=O)Nc1ccc(F)c(F)c1F (configuration not stated),,inactive: -8.93%
O/N=C/c1ccccc1OCc1ccc(Cl)cc1,"inconclusive: 35.5 µM [activator, single point]",
Cc1ccc(C(=O)/C=C/c2ccccc2[N+](=O)[O-])cc1,active: 16.4 µM,
CCC1CCc2sc(C(=O)N(C)CC(=O)Nc3ccc(N4CCOCC4)cc3)cc2C1 (configuration not stated),"inconclusive: 3.66 µM [activator, partial curve, poor fit]",
Cc1ccc(-n2c(Cc3cccn3C)nnc2SCC(=O)NC2CCCCC2)cc1,"inconclusive: 0.092 µM [activator, full curve, poor fit]",
CC(C(=O)NC(C)(C)C)N(C(=O)CS(=O)CC(=O)Nc1ccc(F)cc1)C1CCCC1 (configuration not stated),,inactive: -3.6%
CCCC(=O)Oc1c(S(=O)(=O)c2ccc(C)cc2)c(C)nn1C(C)(C)C,"inconclusive: 20.6 µM [activator, single point]",
N#CC1=C(N)Oc2n[nH]c(-c3cccnc3)c2C1c1ccc([N+](=O)[O-])o1 (configuration not stated),"inconclusive: 29.1 µM [activator, single point]",
O=c1c2ccccc2[nH]c(=S)n1CCCN1CCC(Cc2ccccc2)CC1,"inconclusive: 16.4 µM [activator, partial curve, poor fit]",
Cc1ccc(C(=O)NC(=S)NCc2ccccc2)cc1Br,,inactive: 1.99%
COc1ccc(-n2nc(C(=O)NCC(=O)NCCC3=CCCCC3)c3ccccc3c2=O)c(OC)c1,"inconclusive: 29.1 µM [activator, single point]",
COc1ccc(/C(N)=N/OC(=O)c2ccc3c(c2)OCO3)cc1OC,,inactive: -1.99%
CC(c1nc2ccccc2n1Cc1ccccc1)N1CCCCC1 (configuration not stated),"inconclusive: 13 µM [activator, partial curve]",
N=C1N(c2ccccc2)C(=S)C(=Nc2ccccc2)N1c1ccccc1,active: 18.4 µM,
Clc1ccc(SCc2cn3cccnc3n2)cc1,,inactive: 25.5%
COc1ccc2c(C)c(CC(=O)N3CCN(C(=O)C4COc5ccccc5O4)CC3)c(=O)oc2c1C (configuration not stated),"inconclusive: 29.1 µM [activator, single point]",
Cc1cccc(N2CCN(C(=O)Cn3nc(C)n4cccc4c3=O)CC2C)c1 (configuration not stated),"inconclusive: 0.0731 µM [activator, full curve, poor fit]",
Cc1nc(N2CCN(C(=O)c3ccco3)CC2)c2c3c(sc2n1)CC(C)CC3 (configuration not stated),"inconclusive: 29.1 µM [activator, single point]",
Cc1onc(C(=O)Nc2ccc(OC(F)(F)F)cc2)c1[N+](=O)[O-],"inconclusive: 29.1 µM [activator, single point]",

SMILES,Potency,"activity, positive = re-replication"
CCC(=O)Nc1ccc(SC#N)cc1C,"inconclusive: 29.1 µM [activator, single point]",
Cc1c(/C=N\NC(=O)C2COc3ccccc3O2)c2ccccc2n1C (configuration not stated),"inconclusive: 0.651 µM [activator, full curve, poor fit]",
Cc1ccc(C)c(N2CCN(C(=O)C34CC5CC(C3)CC(n3nnc(C)n3)(C5)C4)CC2)c1,"inconclusive: 23.1 µM [activator, single point]",
CCOC(=O)C1CCCN(C(=O)c2ccc(-c3ccc([N+](=O)[O-])cc3)o2)C1 (configuration not stated),"inconclusive: 5.8 µM [activator, single point]",
CCOC(=O)c1cc2c(nc1N)CC(C)(C)OC2,"inconclusive: 0.517 µM [activator, full curve, poor fit]",
NC(=O)CC[C@H](NC(=O)c1ccc(F)cc1)C(=O)N1CCN(Cc2ccc3c(c2)OCO3)CC1,,inactive: 1.63%
C#CCOCCOCCOCCNc1nc(N2CCN(C(=O)CCCCCCCCCCNC(=O)[C@H](CCCCN)n3cc(C)nn3)CC2)nc(N2CCN(C(=O)CCCCCCCCCCNC(=O)[C@H](CO)n3cc(CCCSC)nn3)CC2)n1,"inconclusive: 25.9 µM [activator, partial curve, poor fit]",
COc1ccc(Cl)cc1C(=O)CSc1nnnn1C,"inconclusive: 23.1 µM [activator, partial curve, poor fit]",
COc1ccc(CC(=O)N[C@@H]2c3cc(OC)c(OC)cc3C[C@H]2O)cc1,"inconclusive: 23.1 µM [activator, single point]",
Cn1nnc(NC(=O)CSc2ncn[nH]2)n1,"inconclusive: 6.51 µM [activator, partial curve, poor fit]",
CC(C)(C)NC(=S)Nc1cccc(C(F)(F)F)c1,"inconclusive: 29.1 µM [activator, partial curve, poor fit]",
COc1cccc(C2(C)NC(=O)N(CC(=O)c3cc(C)n(C4CC4)c3C)C2=O)c1 (configuration not stated),,inactive: -1.28%
Cc1cc(C)c(S(=O)(=O)N2CCN(C(=O)c3cccs3)CC2)c(C)c1,,inactive: 5.44%
Cc1cccc(CN2CCC(CNC(=O)Nc3ccc(F)c(Cl)c3)CC2)c1,"inconclusive: 29.1 µM [activator, single point]",
COc1cccc(C(=O)CSc2nnc(-c3cccs3)o2)c1,"inconclusive: 29.1 µM [activator, single point]",
CC1(C)c2[nH]c3ccccc3c2C[C@@H]2C(=O)N(c3cc(F)ccc3F)C(=O)N21,"inconclusive: 18.4 µM [activator, partial curve, poor fit]",
COc1ccc(OC)c(C(=O)COC(=O)CNC(=O)c2ccccc2)c1,"inconclusive: 20.6 µM [activator, single point]",
CCc1ccc(NC(=O)NCC2CCN(Cc3cccc(Cl)c3)CC2)cc1,,inactive: -9.68%
Cc1ccc(CNC(=S)NC2CCC(C(C)(C)C)CC2)cc1 (configuration not stated),"inconclusive: 32.6 µM [activator, partial curve, poor fit]",
CC(C)(C)OC(=O)CNC(=O)c1[nH]cnc1C(=O)Nc1ccc(CNC(=O)OC(C)(C)C)cc1,"inconclusive: 20.6 µM [activator, single point]",
COc1ccc(Nc2nc(C)cc(-c3cc(-c4ccccc4)on3)n2)cc1,,inactive: 10%
COc1ccccc1N1CCN(C(=O)c2cc(-c3ccc4c(c3)OCO4)on2)CC1,,inactive: 2.09%
COc1ccc(-c2ccccc2)c2oc(-c3ccco3)cc(=O)c12,"inconclusive: 4.61 µM [activator, full curve, poor fit]",

SMILES,Potency,"activity, positive = re-replication"
COCCn1c(N)c(N(Cc2ccccc2)C(=O)c2ccc(-c3ccc(Cl)cc3)o2)c(=O)[nH]c1=O,,inactive: 2.64%
CN(Cc1ccco1)C(=O)CCc1nc2sc3c(c2c(=O)[nH]1)CCCC3,"inconclusive: 18.4 µM [activator, single point]",
CCn1c(SCC(=O)c2ccc3c(c2)OCCO3)nnc1C(C)C,"inconclusive: 12.6 µM [activator, partial curve, poor fit]",
O=C(/C=C/c1ccc(F)cc1)c1ccccc1Br,"inconclusive: 29.1 µM [activator, single point]",
O=c1[nH]cnc2ccc([N+](=O)[O-])cc12,,inactive: -0.588%
Cn1c(=O)[nH]c(=O)c2c1nc(Br)n2Cc1ccccc1F,,inactive: 22.1%
ClCc1ncc(-c2ccc(Cl)cc2)o1,"inconclusive: 20.6 µM [activator, single point]",
CCOc1ccc(OCC)c(NC(=O)C2COc3ccccc3O2)c1 (configuration not stated),"inconclusive: 23.1 µM [activator, partial curve, poor fit]",
CN(C)CCCNc1cc(C(C)(C)C)nc2c(-c3ccc(Cl)cc3)cnn12,"inconclusive: 23.1 µM [activator, partial curve, poor fit]",
CCC(C(=O)Nc1sc(C(N)=O)c(C)c1C(=O)OC)c1ccccc1 (configuration not stated),"inconclusive: 20.6 µM [activator, single point]",
COc1ccc(CCNc2nc(N3CCCCC3)nc(N3CCCCC3)n2)cc1OC,"inconclusive: 20.6 µM [activator, single point]",
CC(=O)Nc1ccc(NC(=O)c2ccc3c(c2)CCN3S(C)(=O)=O)cc1,,inactive: 0.966%
C=CCNCCCCOc1ccc(OCc2ccccc2)cc1,"inconclusive: 25.9 µM [activator, partial curve, poor fit]",
COc1cccc(/C=C2\SC(=S)N(C(Cc3ccccc3)C(=O)O)C2=O)c1 (configuration not stated),"inconclusive: 29.1 µM [activator, single point]",
Fc1ccc([C@@H]2CCNC[C@H]2COc2ccc3c(c2)OCO3)cc1,"inactive and inconclusive: 2.91 µM [activator, partial curve, poor fit]",
CCOC(=O)c1ccc(-n2nc(C)cc2C)cc1,,inactive: 4.15%
COC(=O)c1onc(C(=O)c2ccccc2)c1C(=O)OC,,inactive: 1.55%
COc1cc(NC(=O)c2cccc3c2C(=O)N(C2CCCCC2)C3)cc(OC)c1OC,"inconclusive: 23.1 µM [activator, single point]",
CCCC(C(=O)Nc1ccncc1)c1ccccc1 (configuration not stated),,inactive: -1.04%
C[C@H](CO)N1C[C@H](C)[C@@H](CN(C)S(=O)(=O)c2cccs2)Oc2c(NC(=O)Cc3ccccc3)cccc2C1=O,,inactive: 9.93%
COc1ccc(C=NNC(=O)c2ccccc2OCc2ccc(F)cc2)c(OC)c1,,inactive: 2.11%
